# The list shows a part of the results.
# Tests used:
# Test in all cases: glycan array binding signal (z-score within array); higher = stronger binding
# Settings in all cases: glycan notation: IUPAC condensed, linker removed
# GlcA(b1-3)GlcNAc = biological target: GlcA(b1-3)GlcNAc
# In short: (§1)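 The binding signal is a Z-score computed within each array and averaged over linkers. Arrays of the same protein sequence at different concentrations or buffers were also averaged together. Data originate from 3228 arrays in the Consortium for Functional Glycomics database, kept only where the protein sequence was available.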
# GlcA(b1-6)Gal = biological target: GlcA(b1-6)Gal
# In short: as §1
# [1] = biological target: GlcNAc(a1-3)Gal(b1-4)GlcNAc
# In short: as §1
# [2] = biological target: GlcNAc(a1-6)Gal(b1-4)GlcNAc
# In short: as §1
# [3] = biological target: GlcNAc(b1-2)Gal(b1-3)GalNAc
# In short: as §1
# [4] = biological target: GlcNAc(b1-2)Man(a1-3)[GlcNAc(b1-2)Man(a1-6)]Man(b1-4)GlcNAc(b1-4)GlcNAc
# In short: as §1
# GlcNAc(b1-3)Gal = biological target: GlcNAc(b1-3)Gal
# In short: as §1
# [5] = biological target: GlcNAc(b1-3)Gal(b1-3)GalNAc
# In short: as §1
# GlcNAc(b1-3)Gal(b1-4)Glc = biological target: GlcNAc(b1-3)Gal(b1-4)Glc
# In short: as §1
# [6] = biological target: GlcNAc(b1-3)Gal(b1-4)GlcNAc
# In short: as §1
# [7] = biological target: GlcNAc(b1-3)Gal(b1-4)GlcNAc(b1-3)Gal(b1-4)GlcNAc
# In short: as §1
# GlcNAc(b1-3)GalNAc = biological target: GlcNAc(b1-3)GalNAc
# In short: as §1
# GlcNAc(b1-3)Man = biological target: GlcNAc(b1-3)Man
# In short: as §1
# [8] = biological target: GlcNAc(b1-3)[GlcNAc(b1-4)][GlcNAc(b1-6)]GlcNAc
# In short: as §1
# [9] = biological target: GlcNAc(b1-3)[GlcNAc(b1-6)]Gal(b1-4)GlcNAc
# In short: as §1
# [10] = biological target: GlcNAc(b1-3)[GlcNAc(b1-6)]GalNAc
# In short: as §1
# [11] = biological target: GlcNAc(b1-4)Gal(b1-4)GlcNAc
# In short: as §1
# GlcNAc(b1-4)GlcNAc = biological target: GlcNAc(b1-4)GlcNAc
# In short: as §1
# [12] = biological target: GlcNAc(b1-4)GlcNAc(b1-4)GlcNAc
# In short: as §1
# [13] = biological target: GlcNAc(b1-4)GlcNAc(b1-4)GlcNAc(b1-4)GlcNAc(b1-4)GlcNAc
# In short: as §1
# [14] = biological target: GlcNAc(b1-4)GlcNAc(b1-4)GlcNAc(b1-4)GlcNAc(b1-4)GlcNAc(b1-4)GlcNAc
# In short: as §1
# [15] = biological target: GlcNAc(b1-4)[GlcNAc(b1-6)]GalNAc
# In short: as §1
# [16] = biological target: GlcNAc(b1-6)Gal(b1-4)GlcNAc
# In short: as §1
# GlcNAc(b1-6)GalNAc = biological target: GlcNAc(b1-6)GalNAc
# In short: as §1
# GlcNAc3Prop(b1-4)GlcNAc = biological target: GlcNAc3Prop(b1-4)GlcNAc
# In short: as §1
# Kdn(a2-3)Gal(b1-3)GlcNAc = biological target: Kdn(a2-3)Gal(b1-3)GlcNAc
# In short: as §1
# Kdn(a2-3)Gal(b1-4)GlcNAc = biological target: Kdn(a2-3)Gal(b1-4)GlcNAc
# In short: as §1
# [17] = biological target: Man(a1-2)Man(a1-2)Man(a1-3)Man
# In short: as §1
# [18] = biological target: Man(a1-2)Man(a1-2)Man(a1-6)[Man(a1-3)]Man
# In short: as §1
# Man(a1-2)Man(a1-3)Man = biological target: Man(a1-2)Man(a1-3)Man
# In short: as §1
# [19] = biological target: Man(a1-2)Man(a1-3)[Man(a1-2)Man(a1-6)]Man
# In short: as §1
# [20] = biological target: Man(a1-2)Man(a1-3)[Man(a1-2)Man(a1-6)]Man(a1-6)[Man(a1-2)Man(a1-2)Man(a1-3)]Man
# In short: as §1
# [21] = biological target: Man(a1-2)Man(a1-3)[Man(a1-2)Man(a1-6)]Man(a1-6)[Man(a1-2)Man(a1-2)Man(a1-3)]Man(b1-4)GlcNAc(b1-4)GlcNAc
# In short: as §1
# [22] = biological target: Man(a1-2)Man(a1-3)[Man(a1-6)]Man(a1-6)[Man(a1-2)Man(a1-3)]Man(b1-4)GlcNAc(b1-4)GlcNAc
# In short: as §1
# [23] = biological target: Man(a1-2)Man(a1-6)[Man(a1-3)]Man(a1-6)[Man(a1-2)Man(a1-2)Man(a1-3)]Man
# In short: as §1
# [24] = biological target: Man(a1-2)Man(a1-6)[Man(a1-3)]Man(a1-6)[Man(a1-2)Man(a1-2)Man(a1-3)]Man(b1-4)GlcNAc(b1-4)GlcNAc
# In short: as §1
# Man(a1-3)[Man(a1-6)]Man = biological target: Man(a1-3)[Man(a1-6)]Man
# In short: as §1
binder,measurement,setting,value
"Gal 8 (Homo sapiens), O00214 (protein) MMLSLNNLQNIIYNPVIPFVGTIPDQLDPGTLIVIRGHVPSDADRFQVDLQNGSSMKPRADVAFHFNPRFKRAGCIVCNTLINEKWGREEITYDTPFKREKSFEIVIMVKDKFQVAVNGKHTLLYGHRIGPEKIDTLGIYGKVNIHSIGFSFSSDLQSTQASSLELTEISRENVPKSGTPQLPSNRGGDISKIAPRTVYTKSKDSTVNHTLTCTKIPPMNYVSKRLPFAARLNTPMGPGRTVVVKGEVNANAKSFNVDLLAGKSKDIALHLNPRLNIKAFVRNSFLQESWGEEERNITSFPFSPGMYFEMIIYCDVREFKVAVNGVHSLEYKHRFKELSSIDTLEINGDIHLLEVRSW",glycan array binding signal (z-score),GlcA(b1-3)GlcNAc,-0.418
same,glycan array binding signal (z-score),GlcA(b1-6)Gal,-0.407
same,glycan array binding signal (z-score),[1],0.553
same,glycan array binding signal (z-score),[2],-0.436
same,glycan array binding signal (z-score),[3],0.146
same,glycan array binding signal (z-score),[4],-0.432
same,glycan array binding signal (z-score),GlcNAc(b1-3)Gal,-0.434
same,glycan array binding signal (z-score),[5],0.26
same,glycan array binding signal (z-score),GlcNAc(b1-3)Gal(b1-4)Glc,0.234
same,glycan array binding signal (z-score),[6],0.315
same,glycan array binding signal (z-score),[7],1.65
same,glycan array binding signal (z-score),GlcNAc(b1-3)GalNAc,-0.45
same,glycan array binding signal (z-score),GlcNAc(b1-3)Man,-0.427
same,glycan array binding signal (z-score),[8],-0.435
same,glycan array binding signal (z-score),[9],-0.427
same,glycan array binding signal (z-score),[10],-0.455
same,glycan array binding signal (z-score),[11],-0.425
same,glycan array binding signal (z-score),GlcNAc(b1-4)GlcNAc,-0.449
same,glycan array binding signal (z-score),[12],-0.456
same,glycan array binding signal (z-score),[13],-0.436
same,glycan array binding signal (z-score),[14],-0.451
same,glycan array binding signal (z-score),[15],-0.415
same,glycan array binding signal (z-score),[16],-0.425
same,glycan array binding signal (z-score),GlcNAc(b1-6)GalNAc,-0.427
same,glycan array binding signal (z-score),GlcNAc3Prop(b1-4)GlcNAc,-0.419
same,glycan array binding signal (z-score),Kdn(a2-3)Gal(b1-3)GlcNAc,0.418
same,glycan array binding signal (z-score),Kdn(a2-3)Gal(b1-4)GlcNAc,-0.085
same,glycan array binding signal (z-score),[17],-0.454
same,glycan array binding signal (z-score),[18],-0.418
same,glycan array binding signal (z-score),Man(a1-2)Man(a1-3)Man,-0.454
same,glycan array binding signal (z-score),[19],-0.431
same,glycan array binding signal (z-score),[20],-0.407
same,glycan array binding signal (z-score),[21],-0.448
same,glycan array binding signal (z-score),[22],-0.395
same,glycan array binding signal (z-score),[23],-0.423
same,glycan array binding signal (z-score),[24],-0.408
same,glycan array binding signal (z-score),Man(a1-3)[Man(a1-6)]Man,-0.435

# Source: the supplement of paper PMC8728848
